Measured values taken from article PMC5439695 (PLoS ONE, 2017).

tested on: mitochondrial membrane potential (MMP); details: not given

| Compound | disrupt MMP |
| --- | --- |
| tetrabutyltin | 5.31 log10(M)*-1 |

same assay, conditions: POD potency

| Compound | disrupt MMP |
| --- | --- |
| CCCCCCCCCCCCn1cc[n+](C)c1.F[B-](F)(F)F | 4.78 log10(M)*-1 |
| CCCCCCCCCCCCn1cc[n+](C)c1.O=S(=O)([O-])C(F)(F)F | 4.74 log10(M)*-1 |
| CCCCCCCCCCCCCCCC[N+](C)(C)C.[Cl-] | 4.86 log10(M)*-1 |
| CCCCCCCCCCCCCCCCn1cc[n+](C)c1.F[B-](F)(F)F | 4.74 log10(M)*-1 |
| CCCCCCCCCCCCCC[n+]1ccn(C)c1.[Cl-] | 4.92 log10(M)*-1 |
| CCCCCCCCCCCCCC[N+](C)(C)C.[Cl-] | 4.82 log10(M)*-1 |
| CCCCCCCCCCCCCC[P+](CCCC)(CCCC)CCCC.CCCCCCCCCCCCc1ccc(S(=O)(=O)[O-])cc1 | 6.13 log10(M)*-1 |
| CCCCCCCCCCCCCC[P+](CCCCCC)(CCCCCC)CCCCCC.N#C[N-]C#N | 6.59 log10(M)*-1 |
| N=C1NC(=N)c2cc3ccccc3cc21 [1,3-Diiminobenz(f)isoindoline] | 4.99 log10(M)*-1 |
| CCCC[n+]1ccc(C)cc1.[Cl-] [1-Butyl-4-methylpyridinium chloride] | 5.89 log10(M)*-1 |
| CCCCCCCCCCCCn1cc[n+](C)c1.[Cl-] [1-Dodecyl-3-methylimidazolium chloride] | 5.19 log10(M)*-1 |
| OCC(c1ccc(Cl)cc1)c1ccc(Cl)cc1 [2,2-Bis(4-chlorophenyl)ethanol] | 4.56 log10(M)*-1 |
| CCCCC(CC)COC(=O)c1ccc(O)cc1 (stereo not drawn) [2-Ethylhexylparaben] | 5.25 log10(M)*-1 |
| Cl.Cl.Nc1ccc(-c2ccc(N)c(Cl)c2)cc1Cl [3,3'-Dichlorobenzidine dihydrochloride] | 4.54 log10(M)*-1 |
| CCCCNC(=O)OCC#CI [3-Iodo-2-propynyl-N-butylcarbamate] | 5.26 log10(M)*-1 |
| O=[N+]([O-])C1(Br)COCOC1 [5-Bromo-5-nitro-1,3-dioxane] | 4.24 log10(M)*-1 |
| CC(C)c1cccc(C(C)C)c1N1C(=O)c2ccc(O)cc2C1=O [5HPP-33] | 5.64 log10(M)*-1 |
| CC/C(=C(\c1ccc(O)cc1)c1ccc(OCCN(C)C)cc1)c1ccccc1 [(Z)-4-Hydroxytamoxifen] | 4.57 log10(M)*-1 |
| CC=O [Acetaldehyde] | 4.78 log10(M)*-1 |
| C=C(c1ccc(C(=O)O)cc1)c1cc2c(cc1C)C(C)(C)CCC2(C)C [Bexarotene] | 4.75 log10(M)*-1 |
| CN[C@H]1CC[C@@H](c2ccc(Cl)c(Cl)c2)c2ccc(S(N)(=O)=O)cc21 [UK-373911] | 5.17 log10(M)*-1 |
| C.I. Solvent Black 5 | 4.82 log10(M)*-1 |
| Dodecylphenol | 5.57 log10(M)*-1 |
